Test results as given in PubChem BioAssay AID485294 (National Center for Advancing Translational Sciences (NCATS), 2010).
Several values for one entry are separate records, joined by “and”; a condition that tells them apart may be missing. Identical values can stand only once. In all, about 370,000 compounds went through this assay and about 150 (0.041%) were called active. The inconclusive results got no clear call from the source; some entries with a clear call stand among them for comparison. Calls come from the whole dose curve; as a rule, active = well fitted inhibition curve with a large enough effect; inconclusive = small, poorly fitted or top-dose-only effect; inactive = flat fitted curve, though single readings scatter. Where the call is inconclusive, the potency comes from a doubtful curve fit.

target: Beta-lactamase (Escherichia coli (strain K12)) (UniProt P00811); assay: qHTS Inhibitors of AmpC Beta-Lactamase (assay with detergent); details: AmpC hydrolysis of nitrocefin, absorbance 480 nm, 0.01% Triton; series mostly up to 114 µM; note: nearly all actives have a fitted effect of over 25% in size
In short: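 20 mM phosphate pH 7.0 + 0.01% (detergent screen) or 0.0001% Triton X-100; 5.3 nM AmpC reagent; cpd preinc 15 min RT; nitrocefin (800 uM stock) to start; A480 q20 s × 4 min; Activity was normalised to no-enzyme and no-compound control wells.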
Potency is the fitted concentration of half-maximal effect; tags give direction and shape of the fitted curve.

UniProt P00811, sequence (P00811 whole entry, looked up): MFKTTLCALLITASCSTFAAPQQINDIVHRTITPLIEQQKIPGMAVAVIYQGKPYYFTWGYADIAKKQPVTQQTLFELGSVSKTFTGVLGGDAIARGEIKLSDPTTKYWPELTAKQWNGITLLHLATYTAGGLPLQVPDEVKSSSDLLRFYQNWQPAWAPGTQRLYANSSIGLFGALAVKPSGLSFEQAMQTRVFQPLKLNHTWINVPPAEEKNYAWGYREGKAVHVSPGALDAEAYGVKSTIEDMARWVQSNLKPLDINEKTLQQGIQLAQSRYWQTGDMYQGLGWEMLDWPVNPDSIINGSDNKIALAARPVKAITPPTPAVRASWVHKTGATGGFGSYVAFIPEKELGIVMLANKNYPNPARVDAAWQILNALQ

Row | SMILES | Potency
1 | COc1cccc(/C=N/n2c(=S)n(C)c3cc(C)c(C)cc32)c1OC | inconclusive: 63.1 µM [inhibitor, partial curve, poor fit]
2 | O=C(C1CCC1)N1CCc2cc(S(=O)(=O)Nc3ccc4c(c3)OCCO4)ccc21 | inactive
3 | COC(=O)c1ccc(CNC(=O)c2cc3ccccc3oc2=O)cc1 | inactive
4 | O=C(NC1CC2CCCC(C1)N2C(=O)Nc1ccccc1)c1ccccc1 (stereo not drawn) | inconclusive: 0.708 µM [inhibitor, full curve, poor fit]
5 | CS(=O)(=O)Nc1ccc(OCc2ccccc2)cc1 | inconclusive: 0.794 µM [inhibitor, full curve, poor fit]
6 | CCc1ccc(O)c(-c2cc(C(=O)Nc3cccnc3)[nH]n2)c1 | inactive
7 | O=C(COC(=O)c1ccc([N+](=O)[O-])o1)c1ccccc1 | inconclusive: 0.316 µM [inhibitor, full curve, poor fit]
8 | COc1cc(NC(=O)COc2ccc(Cl)cc2)ccc1-c1cc2ccccc2oc1=O | inactive
9 | CCOC(=O)c1ccc(NC(=O)N2CCOc3ccccc32)cc1 | inactive
10 | Fc1ccc(C2=NOC(c3nnc(-c4ccccc4)o3)C2)cc1 (stereo not drawn) | inactive
11 | COc1cc(C(=S)N2CCCC2)cc(Cl)c1O | inconclusive: 31.6 µM [inhibitor, full curve]
12 | O=C(OC1C2CCC1C1CN(CCc3ccccc3)CC12)c1ccccc1 (stereo not drawn) | inconclusive: 44.7 µM [inhibitor, partial curve, poor fit]
13 | CCN(CC(=O)Nc1ccc(OC)cc1)C(=O)CN1C(=O)NC(C)(c2ccc3ccccc3c2)C1=O (stereo not drawn) | inactive
14 | CC1(C)N([O-])C2=C(c3ccccc3C2=O)[N+](=O)C1(C)C | inactive
15 | Cn1cc(-c2ccccc2)cc(C#N)c1=O | inconclusive: 3.98 µM [inhibitor, full curve]
16 | CN1C(=O)C(Cl)(Cl)C(=O)c2ccccc21 | inconclusive: 8.91 µM [inhibitor, full curve]
17 | Cc1ccc(OP(N)(=O)Oc2ccc(C)cc2)cc1 | inconclusive: 100 µM [inhibitor, single point]
18 | CCN(CC)CCNC(=O)c1cc(-c2cccnc2)nc2ccc(S(=O)(=O)N3CCC(C)CC3)cc12 | inactive
19 | COCCSc1ccccc1C(=O)Nc1cc(C)ccn1 | inconclusive: 0.562 µM [inhibitor, partial curve, poor fit]
20 | COc1cccc(C(=O)NCCS(=O)(=O)NCCc2ccc(OC)c(OC)c2)c1 | inconclusive: 112 µM [inhibitor, partial curve, poor fit]
21 | CC(=O)C(C)Oc1cc(C)cc2oc(=O)c(C)c(C)c12 (stereo not drawn) | inconclusive: 4.47 µM [inhibitor, full curve]
22 | COc1ccc(N2C(=O)C(CC(N)=O)N(NC(=O)CCc3ccccc3)C2=O)cc1 (stereo not drawn) | inconclusive: 89.1 µM [inhibitor, single point]
23 | Cc1ccccc1C(=O)NC1CCN(CC(=O)Nc2ccc(N(C)C)cc2)CC1 | inconclusive: 0.316 µM [inhibitor, full curve, poor fit]

Row | SMILES | Potency
24 | COc1cccc(/C=N/Nc2nc3ccccc3n3cnnc23)c1 | inconclusive: 31.6 µM [inhibitor, partial curve, poor fit]
25 | CCOc1ccc(CCN2C(=O)C(=O)N([C@H](CCCN(C)Cc3ccccc3)CNCc3ccccc3)C[C@@H]2C(C)C)cc1 | inactive
26 | CN(CCCNC(=O)CSc1cc(=O)n(C)c2cc(Cl)ccc12)Cc1ccccc1 | inactive
27 | O=C(NCc1ccccc1Cl)C1CCCN(C(=O)c2cnn(-c3ccccc3)c2-n2cccc2)C1 (stereo not drawn) | inactive
28 | CC1CN(Cc2csc(-c3ccc(Cl)cc3)n2)CC(C)O1 (stereo not drawn) | inactive
29 | CC(C)(Oc1ccc(Cl)cc1)C(=O)N1CCN(c2ccccn2)CC1 | inconclusive: 56.2 µM [inhibitor, partial curve, poor fit]
30 | O=C(NO)c1ccc(C(=O)N(C2CCCCC2)C2CCCCC2)cc1 | inconclusive: 0.708 µM [inhibitor, full curve, poor fit]
31 | O=C(NCc1cccs1)C1CCCN(C(=O)Nc2ccc(F)cc2)C1 (stereo not drawn) | inconclusive: 44.7 µM [inhibitor, partial curve, poor fit]
32 | O=[N+]([O-])c1ccc(-c2c(-c3ccccc3)ncc3cc(F)ccc23)cc1 | inactive
33 | O=C(O/N=C1\CCCc2ccccc21)C1CC1 | inconclusive: 0.891 µM [inhibitor, full curve, poor fit]
34 | O=C(c1ccc2c(c1)OCO2)N1CCN(c2cccc(C(F)(F)F)c2)CC1 | inactive
35 | O=C(Cn1ncc2c3ccccc3n(Cc3ccccc3)c2c1=O)N1CCN(c2ccccn2)CC1 | inactive
36 | COC(=O)c1sc(NC(=S)NC(=O)c2cc(OC)c(OC)c(OC)c2)nc1C | inactive
37 | O=C(NCC(=O)N(c1ccccc1)C(C(=O)NC1CCCC1)c1cccnc1)c1cccs1 (stereo not drawn) | inactive
38 | CCC(C)OC(=O)C1=C(C)NC(=O)NC1c1ccc(F)cc1 (stereo not drawn) | inconclusive: 0.631 µM [inhibitor, full curve, poor fit]
39 | CCn1cc(C(=O)N2CCCc3ccccc32)c2cc(OC)c(OC)cc2c1=O | inconclusive: 100 µM [inhibitor, single point]
40 | COc1cc(O)c(C(CC(=O)N2CCCCC2)c2ccc(N(C)C)cc2)c(OC)c1 (stereo not drawn) | inactive
41 | Cc1cccc(N2CC(C(=O)OCC(=O)c3ccc(OC(=O)c4cccs4)cc3)CC2=O)c1C (stereo not drawn) | inconclusive: 1.26 µM [inhibitor, full curve, poor fit]
42 | COc1ccc(-c2cn(Cc3ccc4ccccc4c3)nn2)cc1 | inconclusive: 0.355 µM [inhibitor, full curve, poor fit]
43 | CCCN(N=Nc1cccc([N+](=O)[O-])c1)c1cccc([N+](=O)[O-])c1 | inactive
44 | Cc1cccc(-n2c(-c3csc(C)c3C)n[nH]c2=S)c1 | inconclusive: 70.8 µM [inhibitor, partial curve, poor fit]
45 | O=C(NCC(=O)N1CCCCCCC1)c1ccco1 | inconclusive: 1.41 µM [inhibitor, full curve, poor fit]
46 | O=C(NC(=S)Nc1ccc(Br)c(Cl)c1)C1CC1 | inconclusive: 63.1 µM [inhibitor, partial curve, poor fit]

Row | SMILES | Potency
47 | CC(NC(=O)[C@H](C)NC(=O)C1CC(=O)N(c2ccc3c(c2)OCO3)C1)c1ccccc1 (stereo partly drawn) | inconclusive: 12.6 µM [inhibitor, full curve, poor fit]
48 | O=C(CN1C2CCC1CC(O)(c1cccnc1)C2)Nc1ccc2c(c1)OCO2 (stereo not drawn) | inactive
49 | CCOc1cc(/C=C2/N=C(c3ccc(C(C)(C)C)cc3)OC2=O)cc(Cl)c1OS(C)(=O)=O | inconclusive: 31.6 µM [inhibitor, full curve, poor fit]
50 | Cc1ccc(/C=C2\SC(=S)N(C3CCS(=O)(=O)C3)C2=O)cc1 (stereo not drawn) | inconclusive: 28.2 µM [inhibitor, full curve]
51 | CCc1ccc(S(=O)(=O)NCc2csc(-c3ccccc3)n2)s1 | inconclusive: 0.631 µM [inhibitor, full curve, poor fit]
52 | COc1cc(S(=O)(=O)N2CCOCC2)ccc1NC(=O)COC(=O)CC12CC3CC(CC(C3)C1)C2 | inactive
53 | COc1ccc(C(=O)O)cc1NC(=S)NC(=O)C(c1ccccc1)c1ccccc1 | inconclusive: 39.8 µM [inhibitor, single point]
54 | Cc1ccc(C2CC(c3ccc(C)cc3)n3nc(N)nc3N2)cc1 (stereo not drawn) | inconclusive: 8.91 µM [inhibitor, full curve]
55 | N#CC1=C(N)Oc2cc(N)ccc2C1c1cccnc1 (stereo not drawn) | inconclusive: 112 µM [inhibitor, partial curve, poor fit]
56 | COc1ccc(CNCCCC(=O)Nc2c(Cl)ccc(C)c2Cl)cc1OC | inactive
57 | COC(=O)C1=C(c2ccc(Cl)c(C(F)(F)F)c2)C[C@@H]2CC[C@H]1N2C(=O)NCC1CC1 | inactive
58 | O=C(c1cc2ccccc2cc1O)N1CCN(c2ccccc2O)CC1 | inconclusive: 28.2 µM [inhibitor, full curve, poor fit]
59 | CCOC(=O)C1=C(CN2CCCCC2)NC(=O)NC1c1cc(C)ccc1C (stereo not drawn) | inactive and inconclusive: 562 nM [inhibitor, full curve, poor fit]
60 | O=C(NC1CC1)c1ccc(-n2cccc2)cc1 | inconclusive: 112 µM [inhibitor, partial curve, poor fit]
61 | COc1ccc(N2CC(C(=O)OCC(=O)Nc3cc(C)on3)CC2=O)cc1 (stereo not drawn) | inactive
62 | CCCOc1ccc(CSCCNC(=S)Nc2ccccc2)cc1 | inconclusive: 10 µM [inhibitor, full curve]
63 | COc1ccc2c(c1)[C@H]1[C@H](CO2)[C@H](c2ccccc2)[C@]2(C)C(=O)Nc3cc(Cl)ccc3C(=O)N12 | inactive
64 | Cc1ccc2nc3sc(C(=O)NCc4ccco4)c(N)c3cc2c1 | inconclusive: 50.1 µM [inhibitor, partial curve, poor fit]
65 | CCN(CC(=O)NCc1cccs1)C(=O)c1ccc(S(=O)(=O)Nc2ccccc2Cl)cc1 | inconclusive: 3.16 µM [inhibitor, single point]
66 | OCCNc1nc(C2CC2)nc2c1nnn2Cc1ccccc1Cl | inconclusive: 35.5 µM [inhibitor, partial curve, poor fit]
67 | O=C(CN1CCCCCC1)N/N=C/c1cccc(Cl)c1 | inconclusive: 0.316 µM [inhibitor, full curve, poor fit]
68 | Cn1c(=O)c2c(nc(CN3CCN(Cc4ccccc4)CC3)n2Cc2ccc(Cl)cc2)n(C)c1=O | inconclusive: 3.16 µM [inhibitor, full curve, poor fit]
